Results from PubChem BioAssay AID504832 (National Center for Advancing Translational Sciences (NCATS), 2011).
About 18,000 (5.8%) of roughly 310,000 compounds were called active. Inconclusive results, whose numbers are uncertain, are shown with a selection of clear calls. Calls come from the whole dose curve; as a rule, active = well fitted inhibition curve with a large enough effect; inconclusive = small, poorly fitted or top-dose-only effect, or another doubt; inactive = no such curve, though single readings can be large or run the other way. Potencies of inconclusive entries are left out as doubtful fits.

Assay: Primary qHTS for delayed death inhibitors of the malarial parasite plastid, 48 hour incubation
Details: P. falciparum luciferase growth in erythrocytes; series mostly up to 28.7 µM
Method in brief: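 Firefly luciferase activity from engineered P. falciparum reports growth; inhibitors lower the luminescent signal. Cultures contained 2% hematocrit erythrocytes at 0.1% final parasitemia.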
Potency is the fitted concentration of half-maximal effect; tags give direction and shape of the fitted curve.

SMILES	Potency
COC(=O)Cn1c(=O)c2c(n(Cc3ccccc3)c1=O)N/C(=C/c1ccc(Br)cc1)C2=O	inconclusive [inhibitor, single point]
O=C(NCc1ccccn1)c1cccc(S(=O)(=O)NCc2ccccc2)c1	inactive
CN(C)CCNC(=O)/C(=C/c1ccc(-c2cccc([N+](=O)[O-])c2)o1)NC(=O)c1ccccc1	active: 13.1 µM
COc1cc2c(cc1OC)CN(C(=O)COc1ccc(C#N)cc1)CC2	inconclusive [inhibitor, partial curve, poor fit]
CC(NC(=O)Nc1ccccc1F)C(C)(C)C (stereo not drawn)	inactive
O=C(COc1ccc2c(c1)OCO2)Nc1cccc(F)c1	inactive
Cc1ccc2[nH]c(=O)c(C(c3nnnn3C(C)(C)C)N(Cc3ccco3)CC3CCCO3)cc2c1 (stereo not drawn)	active: 6.57 µM
Cc1nnc(SCc2ccccn2)n(N)c1=O	inactive
O=C(CN1C(=O)c2ccccc2C1=O)Nc1cccc(O)c1	inconclusive [inhibitor, full curve, poor fit]
N#C/C(=C\c1ccc(N2CCOCC2)o1)C(=O)NCCc1ccccc1	inconclusive [inhibitor, partial curve, poor fit]
NNc1nc(-c2ccccc2)nc2sc3c(c12)CCCC3	inconclusive [inhibitor, full curve, poor fit]
CCC1Oc2ccccc2N(CC(=O)NCCc2ccc(OC)c(OC)c2)C1=O (stereo not drawn)	inconclusive [inhibitor, single point]
Cc1ccccc1CN1CCN(C(=O)c2ccc(F)cc2)CC1	inactive
O=C(O)CCN1C(=O)S/C(=C\c2cccnc2)C1=O	inconclusive [inhibitor, partial curve, poor fit]
CCOC(=O)C1CCN(C(=O)c2cccc(S(=O)(=O)N(C)C3CCCCC3)c2)CC1	inconclusive [inhibitor, single point]
CC(/C=N/Nc1nc(C)cc(C)n1)=C\c1ccc(C(C)C)cc1	active: 10.4 µM
Cc1ccccc1Nc1nc(N)nc(COC(=O)CCS(=O)(=O)c2ccccc2)n1	inconclusive [inhibitor, partial curve]
CCCCCC(=O)Nc1nc(C)c(-c2csc(Nc3ccccc3OC)n2)s1	inconclusive [inhibitor, full curve, poor fit]
CCCn1c(SCC(=O)c2ccc3c(c2)NC(=O)CO3)nc2ccccc21	inconclusive [inhibitor, single point]
COc1cc(OC)cc(-c2c(-c3cccs3)c3cc(-c4ccn[nH]4)ccc3n2C)c1	active: 4.65 µM
CCOC(=O)C1CCCN(C(=O)c2cc(S(=O)(=O)N3CCCCC3)ccc2C)C1 (stereo not drawn)	active: 8.28 µM
CC(C)Oc1ccc(N2CC(C(=O)Nc3ccc(N4CCOCC4)cc3)CC2=O)cc1 (stereo not drawn)	inactive
COc1cc(/C=N\NC(=O)c2ccc(-c3ccccc3)cc2)cc(OC)c1OC(C)=O	inconclusive [inhibitor, partial curve]

SMILES	Potency
Cc1ccc(S(=O)(=O)NCc2ccccc2)cc1C(=O)NC(C)c1ccc(S(N)(=O)=O)cc1 (stereo not drawn)	inconclusive [inhibitor, partial curve]
Cc1cc(C)n(-c2ccc(C(=O)Oc3ccc4c(c3)OCO4)cc2)n1	inactive
Cc1ccc2nc(NC(=O)c3ccc4c(c3)OCO4)sc2c1	inactive
CC(Oc1ccccc1F)c1nnc(SCC(=O)NCc2ccc3c(c2)OCO3)o1 (stereo not drawn)	inconclusive [inhibitor, single point]
COc1ccc(CNC(=O)C2CCCN(S(=O)(=O)N3CC(C)CC(C)C3)C2)c(OC)c1 (stereo not drawn)	inconclusive [inhibitor, partial curve, poor fit]
Cc1nn(CC(=O)OCC(=O)Nc2c(C(C)C)cccc2C(C)C)c(C)c1[N+](=O)[O-]	inactive
C=CCSc1nc(NC)c2sccc2n1	inconclusive [inhibitor, partial curve, poor fit]
CCOc1ccc(CN(Cc2ccco2)S(=O)(=O)c2ccc(-n3cnnn3)c(OC)c2)cc1	inconclusive [inhibitor, single point]
COc1ccc(NC(=O)CN(c2ccccc2)S(=O)(=O)c2ccccc2)c(OC)c1	inconclusive [inhibitor, single point]
COc1ccc(-c2cc(C)no2)cc1S(=O)(=O)N1CCN(C(=O)c2ccco2)CC1	inactive
CCOc1ccc(C(=O)Nc2cc(C)on2)cc1OCC	active: 11.7 µM
S=C(NCc1ccccc1)N1CCN(C2CCCCC2)CC1	inactive
CCOc1ccc2nc(N3C(=O)/C(=C/c4ccccc4)NC3=S)sc2c1	inactive
Cc1ccc(Cl)cc1N1CCN(C2CCCCC2NS(=O)(=O)c2ccccc2)CC1 (stereo not drawn)	inconclusive [inhibitor, partial curve]
COc1ccccc1CCC(=O)N(C)CC(=O)Nc1ccc(F)cc1	inconclusive [inhibitor, single point]
COC(=O)CCC(=O)OC1(C)C(=O)C=C2C=C(C3CC3)N(CC(C)C)C=C2C1=O (stereo not drawn)	active: 2.94 µM
Cc1cc(=O)oc2cc(OCC(=O)N3CCN(c4ccccc4)CC3)ccc12	inconclusive [inhibitor, single point]
Nc1nc(Nc2cccc(C(F)(F)F)c2)nc(C(F)(F)F)n1	inconclusive [inhibitor, single point]
O=C(Nc1ccccc1F)c1ccc2c(c1)CCN2S(=O)(=O)c1ccccc1	inconclusive [inhibitor, single point]
S=C(NCCCn1ccnc1)Nc1cccc(Cl)c1	inconclusive [inhibitor, single point]
CCSc1nccc(-c2nn(-c3ccc(C)cc3)ccc2=O)n1	inconclusive [inhibitor, single point]
CC1CCc2nc(NC(=O)CN3CCN(Cc4ccc5c(c4)OCO5)CC3)sc2C1 (stereo not drawn)	inconclusive [inhibitor, single point]
CCN1C(=O)[C@H]2[C@@H](c3ccc(-c4ccc(C(C)=O)cc4)cc3)N[C@@](Cc3ccccc3)(C(=O)OC)[C@H]2C1=O	active: 13.1 µM

SMILES	Potency
S=C(Nc1cccc(Cl)c1Cl)NC1CCN(Cc2ccccc2)CC1	inconclusive [inhibitor, single point]
COc1ccc(-c2onc3ccc(C(=O)/C=C/N(C)C)cc23)cc1	active: 10.4 µM
COc1ccc(/C(C)=N/NC(=O)CNC(=O)/C=C\c2ccccc2OC)c(OC)c1	inconclusive [inhibitor, partial curve, poor fit]
CCc1noc(C)c1C(=O)Nc1ccc(S(=O)(=O)N2CCC(C)CC2)cc1	inconclusive [inhibitor, single point]
Cc1cc(C=O)c(C)n1-c1cc(C(F)(F)F)ccc1N1CCOCC1	inconclusive [inhibitor, single point]
CCCNC(=O)c1ccc2c(c1)nc(C)n2-c1cccc(Cl)c1	inconclusive [inhibitor, single point]
CCOCCCNC(=O)c1ccc2nc(-c3ccc(OC)c(OC)c3)c(-c3ccc(OC)c(OC)c3)nc2c1	active: 3.7 µM
COc1ccc(CCn2c(N)c(C(=O)NCc3ccco3)c3nc4ccccc4nc32)cc1OC	active: 5.22 µM
CC(C)CC(COCc1ccc(Cl)cc1)N1CCN(C(=O)c2ccc(Cl)cc2Cl)CCC1=O (stereo not drawn)	active: 10.4 µM
CCOc1ccc(S(=O)(=O)N(CC(=O)NCC(F)(F)F)Cc2ccco2)cc1	inactive
CCn1c(-c2ccoc2C)n[nH]c1=S	inconclusive [inhibitor, single point]
Cc1ccc(C(=O)c2ccccc2C(=O)OCC(=O)NCCc2ccccc2)cc1	inactive
COc1ccc(C(C)(C)C)cc1NC(=O)CSc1ncn[nH]1	inconclusive [inhibitor, partial curve]
COc1ccc(C(C(=O)NC(C)(C)C)N(CCc2ccc(OC)c(OC)c2)C(=O)CCC(=O)Nc2cc(C)on2)cc1 (stereo not drawn)	inconclusive [inhibitor, partial curve]
O=C(NCCc1ccc(F)cc1)c1cc(-c2ccncc2)nc2ccccc12	inconclusive [inhibitor, single point]
CC(NCc1ccncc1)C12CC3CC(CC(C3)C1)C2 (stereo not drawn)	inconclusive [inhibitor, single point]
Cc1ccc2cc(CN(CCCN(C)C)C(=O)NCc3ccccc3)c(=O)[nH]c2c1C	inconclusive [inhibitor, single point]
Cc1ccc(C)c(NS(=O)(=O)c2ccc(NC(=O)CSc3ccc(Cl)cc3)cc2)c1	inconclusive [inhibitor, single point]
Cc1ccccc1C(=O)N1CCN(c2ccc(NC(=O)c3ccc([N+](=O)[O-])o3)cc2)CC1	inconclusive [inhibitor, partial curve]
O=C(N[C@@H](Cc1ccccc1)C(=O)N1CCN(S(=O)(=O)c2ccc(F)cc2)CC1)c1ccco1	inconclusive [inhibitor, partial curve]
CCN1CCN(c2ccc(S(=O)(=O)N3CCOCC3)cc2NC(=O)CCOc2ccccc2)CC1	inactive
CCCCCCCCCCCCN1C/C(=C\C(=O)OCC)c2cc(C(F)(F)F)ccc2S1(=O)=O	inconclusive [inhibitor, single point]
